Values joined by “and” are separate entries in the source; they are usually repeats but may differ in a detail not shown here. Equal values may be shown once. Some of the results follow. These are further read-outs of the screen, such as a control signal, another cell line or another target. No call is given for them.
How the values were obtained:
Assay in all cases: Primary Screen for Target Class Profiling of Small Molecule Inhibitors of Methyltransferases
[1] = molecular target: Glycine N-methyltransferase (Homo sapiens) (UniProt Q14749); conditions: purified enzyme, MTase-Glo SAH luminescence; measured here: GNMT inhibition; at 40 µM; stronger effect = lower value
Procedure, shortened: (§1)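 Each enzyme was assayed with SAM and its substrate. SAH formation detected by MTase-Glo luminescence; single-point 40 uM screen[…].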

[2] = molecular target: Guanidinoacetate N-methyltransferase (Homo sapiens) (UniProt Q14353); conditions: purified enzyme, MTase-Glo SAH luminescence; measured here: GAMT inhibition; at 40 µM; stronger effect = lower value
Procedure, shortened: as §1

[3] = molecular target: Histamine N-methyltransferase (Homo sapiens) (UniProt P50135); conditions: purified enzyme, MTase-Glo SAH luminescence; measured here: HNMT inhibition; at 40 µM; stronger effect = lower value
Procedure, shortened: as §1

[4] = molecular target: Nicotinamide N-methyltransferase (Homo sapiens) (UniProt P40261); conditions: purified enzyme, MTase-Glo SAH luminescence; measured here: NNMT inhibition; at 40 µM; stronger effect = lower value
Procedure, shortened: as §1

[5] = molecular target: Phenylethanolamine N-methyltransferase (Homo sapiens) (UniProt P11086); conditions: purified enzyme, MTase-Glo SAH luminescence; measured here: PNMT inhibition; at 40 µM; stronger effect = lower value
Procedure, shortened: as §1
On the % scale 0 is the no-effect control and ±100 the full control effect.

| Compound | activity change, negative = inhibition [1] [%] | activity change, negative = inhibition [2] | activity change, negative = inhibition [3] [%] | activity change, negative = inhibition [4] | activity change, negative = inhibition [5] |
| --- | --- | --- | --- | --- | --- |
| CC(C)CCNC(=O)C1(C)Cn2nc(C(=O)NCCc3cccs3)cc2C(=O)N1C (stereo not drawn) | 0.913 | 0% | 3.59 | 2.56% | 0.118% |
| CCCNC(=O)C1CCc2ncc(-c3ccc(OC)cc3)n2C1 (stereo not drawn) | -1.27 | -2.03% | -6.15 | -1.66% | 1.12% |
| COc1ccc(CN2CCc3nc(N4CCN(C)CC4)[nH]c(=O)c3CC2)c(OC)c1OC | -4.45 | -4.51% | -2.47 | -6.03% | 12% |
| Cc1ccc(CNC(=O)CCc2nnc3n(Cc4ccc(Cl)cc4)c(=O)c4ccccc4n23)cc1 | -3.87 | 1.41% | 7.33 | 9.76% | -0.189% |
| CCOCCCNC(=O)N1Cc2c(sc3c2CCCC3)-n2cccc2C1c1cccc(F)c1 (stereo not drawn) | -3.1 | 4.96% | -0.002 | -11.8% | 2.41% |
| Cc1ccc(C)c(N2C(=O)c3cc4sccc4n3CC2(C)C(=O)NC2CCCCC2C)c1 (stereo not drawn) | 3.09 | 0% | 4.15 | 2.71% | 0.765% |
| CCOc1ccc2nc(SCCN3CCOCC3)[nH]c2c1 | -2.52 | -7.17% | -5.32 | -17.3% | -5.03% |
| Cc1ccccc1CSc1nnc2n(C)c(=O)c3ccc(C(=O)NC4CCCC4)cc3n12 | -3.01 | 0% | 5.69 | 4.67% | 1.88% |
| NC12CC3CC(CC(C3)C1)C2 | 6.57 | -4.45% | 9.58 | -12.6% | -3.9% |
| COc1ccc(-c2nnc3n(Cc4ccccc4Cl)c(=O)c4ccccc4n23)c(OC)c1 | -9.6 | 4.35% | -3.34 | -3.71% | -0.708% |
| COCCN1C(=O)CS(=O)C12CCN(S(=O)(=O)c1ccccc1)CC2 (stereo not drawn) | -0.323 | 1.56% | 1.91 | 1% | 0.722% |
| COc1cccc(CCC(=O)N2CCC3(CC2)N=C(c2ccccc2)NO3)c1 | -8.77 | -13.4% | -6.23 | -21.7% | -13.9% |
| Cc1ccc(C)c(Cn2nc3n(C(C)C)c(=O)c4ccc(C(=O)NC(C)C)cc4n3c2=O)c1 | 5.2 | 1.13% | 9.42 | 3.49% | 8.15% |
| Cc1ccc(N2C(=O)c3cc4occc4n3CC2(C)C(=O)NC2CCCC(C)C2C)cc1C (stereo not drawn) | -12 | -8.34% | -0.212 | -11.8% | -10.3% |
| Cc1cccc(-c2nnn3c2nc(N2CCOCC2)c2cc(Cl)ccc23)c1 | -2.2 | 0.11% | 6.77 | 11.4% | 1.55% |
| CCOCC(=O)Nc1nn(-c2ccc(F)cc2)c2cccc(N3CCOC3=O)c12 | 1.41 | 0.1% | 2.14 | -0.685% | -2.25% |
| COc1cc(NS(=O)(=O)c2ccc(N)cc2)nc(C)n1 | 10 | 7.14% | 8.64 | -4.16% | 2.76% |
| CCCNC(=O)O[C@@H]1CC[C@]2(C)[C@H](CC[C@@H](O)[C@H]2CC(=O)N2CCCC2)[C@]1(C)CO | -4.4 | -5.89% | -2.98 | -12% | -21.3% |
| Cc1cnc(CCNC(=O)c2cccs2)n1C1CCC1 | -6.84 | -6.74% | -55.7 | -11.6% | 7.64% |
| CN1C(=O)c2cc(C(=O)NCc3ccc(Cl)cc3)nn2CC1(C)C(=O)NC1CCCCC1 (stereo not drawn) | -1 | 3.18% | 8.95 | 6.78% | 3.42% |

| Compound | activity change, negative = inhibition [1] [%] | activity change, negative = inhibition [2] | activity change, negative = inhibition [3] [%] | activity change, negative = inhibition [4] | activity change, negative = inhibition [5] |
| --- | --- | --- | --- | --- | --- |
| CCS(=O)(=O)Nc1ccc(C)n(CC(=O)NC2CCCCC2)c1=O | -2.73 | -2.7% | -2.39 | -6.32% | 9.99% |
| CO[C@H]1O[C@@H]2O[C@@]3(C)CC[C@H]4[C@H](C)CC[C@@H]([C@H]1C)[C@@]24OO3 |  | 4.04% and 3.27% |  | -9.2% and -6.38% | 2.96% and 6.84% |
| O=c1[nH]c2ccc(S(=O)(=O)NCCC3=CCCCC3)cc2[nH]1 | 12.7 | 0.848% | 11.1 | 4.11% | -8.54% |
| COc1ccc(N2C(=O)CSc3c(c4ccccc4n3C)C2C(=O)NCCCOC(C)C)c(OC)c1 (stereo not drawn) | 4.81 | 0% | -0.146 | 2.81% | 2.94% |
| Cc1cccc(CNC(=O)CNC(=O)C2(C)Cn3c(cc4ccccc43)C(=O)N2C)c1 (stereo not drawn) | -0.306 | 0% | 0.545 | -2.67% | 1.46% |
| O=C(NCCN1CCC(n2c(=O)[nH]c3ccccc32)CC1)c1cc2cc(F)ccc2[nH]1 | -30.4 | 5.46% | 1.6 | -23.6% | -6.51% |
| O=C1CCN(Cc2ccncc2)CCCC(C(=O)NCCCN2CCCC2=O)CCN1 (stereo not drawn) | -2.89 | -3.1% | -1.83 | -0.266% | -5.29% |
| COc1cccc(S(=O)(=O)N2CCCC(c3nnnn3C)C2)c1 (stereo not drawn) | 3.12 | 1.86% | 14.8 | 6.99% | 11% |
| CCOc1ccc(CCNC(=O)CNC(=O)C2(C)Cn3c(cc4ccccc43)C(=O)N2C)cc1 (stereo not drawn) | 4.55 | 0% | 7.01 | 8.08% | 2.47% |
| Cc1nn(C)cc1C(=O)N1C[C@@H](CO)[C@H](c2ccncc2)C1 | -5.06 | -4.66% | -2.56 | -10.6% | 5.46% |
| CCOC(=O)C1CCC(CNC(=O)N2CCn3cccc3C2C)CC1 (stereo not drawn) | 4.02 | 0.804% | 10.5 | -1.91% | 5.93% |
| CC(C)NC(=O)c1ccc2c(=O)n(C(C)C)c3nn(Cc4ccc(Cl)cc4)c(=O)n3c2c1 | -2.64 | 0.639% | 5.63 | -4.99% | 5.01% |
| CC1CCN(S(=O)(=O)c2ccc3c(ccn3CCC(=O)NCc3ccc4c(c3)OCO4)c2)CC1 | 4.62 | 0% | -0.285 | -0.422% | 2.27% |
| O=C(c1ccccc1F)N1CCC2(CC(c3cccc(C(F)(F)F)c3)=NO2)C1 (stereo not drawn) | -3.8 | -1.85% | -1.29 | -12.5% | -1.43% |
| CCCC(=O)N1CCC(O)(c2ccccc2)[C@H](N2CCCC2)C1 (stereo partly drawn) | -15.4 | -7.37% | -8.79 | -15.4% | -10.8% |
| CCOC(=O)N1CCC(NC(=O)c2ccccc2C2CCNC2)CC1 (stereo not drawn) | -4.12 | -4.47% | -5.46 | -9.11% | -8.31% |
| CCCN1C(=O)c2cc3sc(CC)cc3n2CC1(C)C(=O)NC1CCCCCC1 (stereo not drawn) | -5.49 | 6.11% | -1.85 | -4.31% | -3.71% |
| CCCCc1cc(C[C@H]2CNCC[C@H]2CC(=O)N2CCC(Cc3ccccc3)CC2)no1 | -6.85 | -4.79% | -9.65 | -20.5% | -6.05% |
| CC(=O)[C@H]1CC[C@H]2[C@@H]3CC=C4C[C@@H](OS(=O)(=O)O)CC[C@]4(C)[C@H]3CC[C@]12C | -9.66 | 2.06% | -3.22 | -24.1% | -12.6% |
| COc1ccc(OC)c2c1cc1n2CC(C)(C(=O)NC2CCCC2)N(Cc2cccc(F)c2)C1=O (stereo not drawn) | -3.28 | 1.14% | 4.27 | -8.36% | -5.09% |
